The campaign covered roughly 150,000 compounds. About 540 (0.36%) showed an effect of 50% or more. Some of the results follow.

This test concerns Plasmodium falciparum. Briefly: Primary screen in NF54 nanoGlo assay, in single point, at 2uM, 72h; a lower Z score goes with more inhibition. The class given is functional, Erythrocyte. The following applies: timepoint 72 hour.
The % Inhibition is the drop in the measured response relative to a control, in per cent. Consider `CC1(C)[C@@H](NS(=O)(=O)c2cccnc2C#N)[C@@H]1c1ccccc1`, for which the “% Inhibition” value is recorded as -8% and the Z score is given as 1.38.

For the compound `COc1ccccc1CN1Cc2cc(NC(=O)CC(C)(C)C)ccc2O[C@@H](C)C1=O`, the “% Inhibition” value is reported as -22% and the Z score was 2.1.

Consider `CN(C[C@H]1CCCN1C)C(=O)c1csc2nc(-c3ccccc3)cn12`, for which the “% Inhibition” value was determined as 0% and the Z score is reported as -0.01.

On to `O=C(O)[C@@H]1CCCN1Cc1nn(-c2ccc(F)cc2)c2c1CCC2`, for which the “% Inhibition” value is -27% and the Z score is 2.46.

As to `Cc1ccc(-c2noc(CNc3nc(N)nc4c3CCNCC4)n2)cc1`, the “% Inhibition” value worked out at 5% and the Z score is -0.66.

As to `NC(N)=Nc1nc(C2CCOCC2)cs1`, the “% Inhibition” value came out at 11% and the Z score was -1.37.

On to `C[C@H]1CCCCN1C(=O)Cn1c(=O)n(-c2cc(F)cc(F)c2)c(=O)c2sccc21`, for which the “% Inhibition” value was found to be 31% and the Z score is given as -3.56.

For the compound `Cc1cccnc1[C@H](C)NC(=O)CCCc1cn[nH]c1`, the “% Inhibition” value is on record as 7% and the Z score is on record as -0.96.

Take `c1ccc(CC2CCN(c3ncnc4c3[nH]c3ccccc34)CC2)cc1`: the “% Inhibition” value was 35% and the Z score was -3.95.

As for `Cc1ccccc1C(=O)N1[C@H](C(=O)NCc2ccccc2)COC12CCN(C(=O)c1ccc(Cl)cc1)CC2`, the “% Inhibition” value was found to be 7% and the Z score is listed as -1.16.

`CCOc1ccc(NC(=O)C23CCC(C)(C(=O)C2=O)C3(C)C)cc1` (configuration not stated): the “% Inhibition” value was -19% and the Z score turned out to be 3.78.

Take `CCC(C)C(NC(=O)N1CCC(C)CC1)C(=O)O` (configuration not stated): the “% Inhibition” value came to 1% and the Z score is reported as -0.09.

With `CCOc1ccc(-c2ccc(=O)n([C@@H](C)C(=O)NCCn3ccnc3C)n2)cc1`, the “% Inhibition” value came out at 27% and the Z score was -3.5.

In the case of `Cc1ccc([C@@H]2Cn3nnc(C(=O)N4CCC(C(=O)NC5CCCCC5)CC4)c3CO2)cc1`, the “% Inhibition” value is recorded as -19% and the Z score was determined as 1.74.

For the compound `CC(NC(C)C1CN(C(=O)OC(C)(C)C)C1)c1cnn(C)c1` (configuration not stated), the “% Inhibition” value is -6% and the Z score came to 0.85.

Turning to `Cc1cccc2nc(N3CC[C@]4(CCNC4)C3)oc12`, the “% Inhibition” value was -7% and the Z score is given as 0.79.

Consider `COc1cc(-c2n[nH]cc2CN2CCC[C@H]2C(N)=O)cc(OC)c1OC`, for which the “% Inhibition” value came to 2% and the Z score was -0.39.

With `CC1(C)c2ccccc2N2CC(=O)N(Cc3cccc4ccccc34)[C@@]21C`, the “% Inhibition” value is -3% and the Z score came out at 0.4.

Consider `Cc1noc(C)c1S(=O)(=O)N(C)Cc1nnc(-c2ccccc2Br)o1`, for which the “% Inhibition” value is reported as -8% and the Z score came out at 1.25.

Consider `O=C(NC[C@H]1COCCO1)C1(c2cc(F)cc(F)c2)CCCC1`, for which the “% Inhibition” value is 2% and the Z score is -0.31.

Turning to `CN1CCN[C@@H](CNC(=O)c2ccc(-c3cc(F)c(F)c(F)c3)cc2)C1`, the “% Inhibition” value is reported as 2% and the Z score is given as -0.37.

As for `CNC(=O)NC(=O)[C@H](C)Nc1ccc(C)cc1C`, the “% Inhibition” value is reported as 17% and the Z score is -1.98.

For the compound `CN1CCCOc2cccc(c2)[C@@H]2N(C(=O)c3cn(C)cn3)CC[C@]23C(=O)N(CC1=O)c1ccccc13`, the “% Inhibition” value was 5% and the Z score is listed as -1.02.

Turning to `CN(Cc1noc(C2CC2)n1)C(=O)[C@H]1CC(=O)N(C)[C@@H]1c1nccn1C`, the “% Inhibition” value was -1% and the Z score turned out to be 0.16.

Turning to `O=C(O)CC1(NC(=O)c2cc(Oc3ccccc3)ccn2)CCC1`, the “% Inhibition” value is reported as 39% and the Z score is listed as -5.28.

`O=C(Nc1cc(S(=O)(=O)N2CCOCC2)ccc1N1CCCC1)c1cc(O)nc2ccccc12`: the “% Inhibition” value was -2% and the Z score came out at 0.3.

For the compound `Cc1ccc(C2CCCN2S(=O)(=O)CCC2CCCO2)s1` (configuration not stated), the “% Inhibition” value is listed as -11% and the Z score is listed as 1.14.

With `C=C(C)CNc1cc(OC)c(OC)cc1F`, the “% Inhibition” value was -2% and the Z score is recorded as 0.23.

Take `Cc1cc(C(=O)N[C@@H]2COCC[C@@H]2OCC2CCC2)no1`: the “% Inhibition” value is -14% and the Z score is 1.26.

On to `c1cc2c(cc1CN1CCCCCC1)CNCCO2`, for which the “% Inhibition” value was -11% and the Z score is listed as 2.05.

Take `COc1ccc(-c2cnn3c4c(c(C)nc23)CCN4C2CCCC2)cc1OC`: the “% Inhibition” value is -3% and the Z score worked out at 0.46.

Regarding `Fc1ccc(-c2cc(C(F)(F)F)nc(-n3ccnc3)n2)cc1`, the “% Inhibition” value is reported as -16% and the Z score is listed as 2.43.

Take `C[C@@H]1CN(c2cccc(C(F)(F)F)n2)C[C@H](C)N1CCO`: the “% Inhibition” value is on record as -14% and the Z score stood at 1.43.

For `CN(c1ccc(C(C)(C)C)cc1)S(=O)(=O)Cc1ccon1`, the “% Inhibition” value is on record as -10% and the Z score is 1.36.

For `CC[C@H](C)NC(=O)Cn1c(C)c(Cc2ccccc2)c(=O)n2nc(-c3ccc(C)cc3)nc12`, the “% Inhibition” value is 20% and the Z score is reported as -2.53.

For `Cc1nn(C)c2nc(N3CCCN(C(=O)[C@@H]4CCCO4)CC3)sc12`, the “% Inhibition” value is -9% and the Z score came to 1.46.

As to `Cc1ccc(-c2csc(NC(=O)c3ccc4c(c3)OCCO4)n2)cc1`, the “% Inhibition” value is listed as -9% and the Z score is reported as 1.48.

Turning to `Cc1csc(OCC2CCOCC2)n1`, the “% Inhibition” value came out at 0% and the Z score is on record as -0.05.

For the compound `CCCc1nc2nc(C)nn2c(O)c1NC(=O)Nc1cc(OC)cc(OC)c1`, the “% Inhibition” value is on record as -7% and the Z score is reported as 1.14.

In the case of `O=C(Cn1cccn1)N[C@@H]1[C@@H]2CCO[C@@H]2[C@@H]1C1CCCC1`, the “% Inhibition” value is listed as -6% and the Z score worked out at 1.05.

On to `O=C(CCC1CCN(Cc2cccc3c2OCO3)CC1)NCc1cccnc1`, for which the “% Inhibition” value is given as -9% and the Z score is 0.85.
